{
  "source": "the supplement of paper PMC8728848",
  "binders": {"B1": {"name": "PX9961U-pdi-543-24-543 (Parabacteroides distasonis) (protein)", "chain": "EEPVGEFLPGQVESEENIEGIVTGAYAVLDGYYASDAINSGCSNWQFGDVVSDDAYKGGGGTGDQNQIHLMEIFNANPTGIDFEARWAALYEGIKRCNQAIRLLNGSEVKNKEQRLAEMRFLRGHYYFNLKIIYNQIPWIDETLVDPNEYNKKSNIEFSSDQLWEKILEEFSAAYKVLPESQADYGRPTKMAARAYMAKVYLYQSKWKECLEACDEVIQSGKYELFPDFRNVFLPENDNCSEIIFAIQLSINDGSPNNENGSYGDRLLPPGGPYPVYGFLRPTQNLVNAYKTDVKGLPYNDGKDVSENDYVDVRLDHTLARPNIPFMDVQLYDWTPREASVYGPYSPKKRLVSLNSTYYSPIWPYVNALNFYVIRYADLLLWRAEAAIETGDLETGRKYINMIRERAKNTQHVKTMDQSQDAANYKVGVYDEPFKSKNEAVQALRMERRLEMAHEGIRFFDLVRWGVADEVINAYIAKEKVFRSHLQNAHFVKGKHEYFPIPQSMIDICGTEVMKQNPGY"}},
  "assay_in_all_cases": "glycan array binding signal (z-score within array); higher = stronger binding",
  "settings_in_all_cases": "glycan notation: IUPAC condensed, linker removed",
  "key": {"[1]": {"molecular_target": "Neu5Ac(a2-3)Gal(b1-4)GlcNAc(b1-3)Gal(b1-4)GlcNAc(b1-3)Gal(b1-4)GlcNAc", "how_it_was_run": "(§1)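 The binding signal is a Z-score computed within each array and averaged over linkers. Arrays of the same protein sequence at different concentrations or buffers were also averaged together. Data originate from 3228 arrays in the Consortium for Functional Glycomics database, kept only where the protein sequence was available.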"}, "[2]": {"molecular_target": "Neu5Ac(a2-3)Gal(b1-4)GlcNAc(b1-3)Gal(b1-4)GlcNAc(b1-3)Gal(b1-4)GlcNAc(b1-2)Man(a1-3)[Neu5Ac(a2-3)Gal(b1-4)GlcNAc(b1-3)Gal(b1-4)GlcNAc(b1-3)Gal(b1-4)GlcNAc(b1-2)Man(a1-6)]GalNAc", "how_it_was_run": "as §1"}, "[3]": {"molecular_target": "Neu5Ac(a2-3)Gal(b1-4)GlcNAc(b1-3)Gal(b1-4)GlcNAc(b1-3)GalNAc", "how_it_was_run": "as §1"}, "[4]": {"molecular_target": "Neu5Ac(a2-3)Gal(b1-4)GlcNAc(b1-3)Gal(b1-4)GlcNAc(b1-3)[Neu5Ac(a2-3)Gal(b1-4)GlcNAc(b1-3)Gal(b1-4)GlcNAc(b1-6)]GalNAc", "how_it_was_run": "as §1"}, "[5]": {"molecular_target": "Neu5Ac(a2-3)Gal(b1-4)GlcNAc(b1-3)Gal(b1-4)GlcNAc(b1-6)[Gal(b1-3)]GalNAc", "how_it_was_run": "as §1"}, "[6]": {"molecular_target": "Neu5Ac(a2-3)Gal(b1-4)GlcNAc(b1-3)Gal(b1-4)[Fuc(a1-3)]GlcNAc", "how_it_was_run": "as §1"}, "[7]": {"molecular_target": "Neu5Ac(a2-3)Gal(b1-4)GlcNAc(b1-3)GalNAc", "how_it_was_run": "as §1"}, "[8]": {"molecular_target": "Neu5Ac(a2-3)Gal(b1-4)GlcNAc(b1-3)[Neu5Ac(a2-3)Gal(b1-4)GlcNAc(b1-6)]GalNAc", "how_it_was_run": "as §1"}, "[9]": {"molecular_target": "Neu5Ac(a2-3)Gal(b1-4)GlcNAc(b1-6)GalNAc", "how_it_was_run": "as §1"}, "[10]": {"molecular_target": "Neu5Ac(a2-3)Gal(b1-4)GlcNAc(b1-6)[Gal(b1-3)]GalNAc", "how_it_was_run": "as §1"}, "[11]": {"molecular_target": "Neu5Ac(a2-3)Gal(b1-4)GlcNAc(b1-6)[Neu5Ac(a2-3)Gal(b1-3)]GalNAc", "how_it_was_run": "as §1"}, "[12]": {"molecular_target": "Neu5Ac(a2-3)Gal(b1-4)GlcNAc6S", "how_it_was_run": "as §1"}, "[13]": {"molecular_target": "Neu5Ac(a2-3)Gal(b1-4)[Fuc(a1-3)]GlcNAc", "how_it_was_run": "as §1"}, "[14]": {"molecular_target": "Neu5Ac(a2-3)Gal(b1-4)[Fuc(a1-3)]GlcNAc(b1-2)Man", "how_it_was_run": "as §1"}, "[15]": {"molecular_target": "Neu5Ac(a2-3)Gal(b1-4)[Fuc(a1-3)]GlcNAc(b1-3)Gal", "how_it_was_run": "as §1"}, "[16]": {"molecular_target": "Neu5Ac(a2-3)Gal(b1-4)[Fuc(a1-3)]GlcNAc(b1-3)Gal(b1-4)GlcNAc", "how_it_was_run": "as §1"}, "[17]": {"molecular_target": "Neu5Ac(a2-3)Gal(b1-4)[Fuc(a1-3)]GlcNAc(b1-3)Gal(b1-4)[Fuc(a1-3)]GlcNAc(b1-3)Gal(b1-4)[Fuc(a1-3)]GlcNAc", "how_it_was_run": "as §1"}, "[18]": {"molecular_target": "Neu5Ac(a2-3)Gal(b1-4)[Fuc(a1-3)]GlcNAc(b1-3)GalNAc", "how_it_was_run": "as §1"}, "[19]": {"molecular_target": "Neu5Ac(a2-3)Gal(b1-4)[Fuc(a1-3)]GlcNAc(b1-6)[Gal(b1-3)]GalNAc", "how_it_was_run": "as §1"}, "[20]": {"molecular_target": "Neu5Ac(a2-3)Gal(b1-4)[Fuc(a1-3)]GlcNAc(b1-6)[Neu5Ac(a2-3)Gal(b1-3)]GalNAc", "how_it_was_run": "as §1"}, "[21]": {"molecular_target": "Neu5Ac(a2-3)Gal(b1-4)[Fuc(a1-3)]GlcNAc6S", "how_it_was_run": "as §1"}, "[22]": {"molecular_target": "Neu5Ac(a2-3)Gal6S(b1-4)GlcNAc", "how_it_was_run": "as §1"}, "[23]": {"molecular_target": "Neu5Ac(a2-3)Gal6S(b1-4)[Fuc(a1-3)]GlcNAc", "how_it_was_run": "as §1"}, "[24]": {"molecular_target": "Neu5Ac(a2-3)GalNAc", "how_it_was_run": "as §1"}, "[25]": {"molecular_target": "Neu5Ac(a2-3)GalNAc(b1-4)GlcNAc", "how_it_was_run": "as §1"}, "[26]": {"molecular_target": "Neu5Ac(a2-3)[GalNAc(b1-4)]Gal(b1-4)Glc", "how_it_was_run": "as §1"}, "[27]": {"molecular_target": "Neu5Ac(a2-3)[GalNAc(b1-4)]Gal(b1-4)GlcNAc", "how_it_was_run": "as §1"}, "[28]": {"molecular_target": "Neu5Ac(a2-3)[GalNAc(b1-4)]Gal(b1-4)GlcNAc(b1-3)GalNAc", "how_it_was_run": "as §1"}, "[29]": {"molecular_target": "Neu5Ac(a2-3)[Neu5Ac(a2-6)]GalNAc", "how_it_was_run": "as §1"}, "[30]": {"molecular_target": "Neu5Ac(a2-6)Gal", "how_it_was_run": "as §1"}, "[31]": {"molecular_target": "Neu5Ac(a2-6)Gal(b1-3)GlcNAc(b1-3)[Gal(b1-4)GlcNAc(b1-6)]Gal(b1-4)Glc", "how_it_was_run": "as §1"}, "[32]": {"molecular_target": "Neu5Ac(a2-6)Gal(b1-4)Glc", "how_it_was_run": "as §1"}, "[33]": {"molecular_target": "Neu5Ac(a2-6)Gal(b1-4)GlcNAc", "how_it_was_run": "as §1"}, "[34]": {"molecular_target": "Neu5Ac(a2-6)Gal(b1-4)GlcNAc(b1-2)Man", "how_it_was_run": "as §1"}, "[35]": {"molecular_target": "Neu5Ac(a2-6)Gal(b1-4)GlcNAc(b1-2)Man(a1-3)Man(b1-4)GlcNAc(b1-4)GlcNAc", "how_it_was_run": "as §1"}, "[36]": {"molecular_target": "Neu5Ac(a2-6)Gal(b1-4)GlcNAc(b1-2)Man(a1-3)[Gal(b1-4)GlcNAc(b1-2)Man(a1-6)]Man(b1-4)GlcNAc(b1-4)GlcNAc", "how_it_was_run": "as §1"}, "[37]": {"molecular_target": "Neu5Ac(a2-6)Gal(b1-4)GlcNAc(b1-2)Man(a1-3)[GlcNAc(b1-2)Man(a1-6)]Man(b1-4)GlcNAc(b1-4)GlcNAc", "how_it_was_run": "as §1"}, "[38]": {"molecular_target": "Neu5Ac(a2-6)Gal(b1-4)GlcNAc(b1-2)Man(a1-3)[GlcNAc(b1-4)][Neu5Ac(a2-6)Gal(b1-4)GlcNAc(b1-2)Man(a1-6)]Man(b1-4)GlcNAc(b1-4)GlcNAc", "how_it_was_run": "as §1"}},
  "note": "The list shows a part of the results.",
  "data": [
    {"binder": "B1", "values": [
      {"measurement": "glycan array binding signal (z-score)", "setting": "[1]", "result": -0.466},
      {"measurement": "glycan array binding signal (z-score)", "setting": "[2]", "result": -0.211},
      {"measurement": "glycan array binding signal (z-score)", "setting": "[3]", "result": -0.376},
      {"measurement": "glycan array binding signal (z-score)", "setting": "[4]", "result": 0.127},
      {"measurement": "glycan array binding signal (z-score)", "setting": "[5]", "result": -0.248},
      {"measurement": "glycan array binding signal (z-score)", "setting": "[6]", "result": -0.34},
      {"measurement": "glycan array binding signal (z-score)", "setting": "[7]", "result": -0.341},
      {"measurement": "glycan array binding signal (z-score)", "setting": "[8]", "result": -0.48},
      {"measurement": "glycan array binding signal (z-score)", "setting": "[9]", "result": -0.154},
      {"measurement": "glycan array binding signal (z-score)", "setting": "[10]", "result": -0.23},
      {"measurement": "glycan array binding signal (z-score)", "setting": "[11]", "result": -0.47},
      {"measurement": "glycan array binding signal (z-score)", "setting": "[12]", "result": -0.332},
      {"measurement": "glycan array binding signal (z-score)", "setting": "[13]", "result": -0.372},
      {"measurement": "glycan array binding signal (z-score)", "setting": "[14]", "result": -0.435},
      {"measurement": "glycan array binding signal (z-score)", "setting": "[15]", "result": -0.335},
      {"measurement": "glycan array binding signal (z-score)", "setting": "[16]", "result": 0.825},
      {"measurement": "glycan array binding signal (z-score)", "setting": "[17]", "result": -0.269},
      {"measurement": "glycan array binding signal (z-score)", "setting": "[18]", "result": 3.69},
      {"measurement": "glycan array binding signal (z-score)", "setting": "[19]", "result": 0.612},
      {"measurement": "glycan array binding signal (z-score)", "setting": "[20]", "result": 1.28},
      {"measurement": "glycan array binding signal (z-score)", "setting": "[21]", "result": -0.317},
      {"measurement": "glycan array binding signal (z-score)", "setting": "[22]", "result": -0.384},
      {"measurement": "glycan array binding signal (z-score)", "setting": "[23]", "result": -0.472},
      {"measurement": "glycan array binding signal (z-score)", "setting": "[24]", "result": -0.409},
      {"measurement": "glycan array binding signal (z-score)", "setting": "[25]", "result": -0.459},
      {"measurement": "glycan array binding signal (z-score)", "setting": "[26]", "result": -0.33},
      {"measurement": "glycan array binding signal (z-score)", "setting": "[27]", "result": -0.196},
      {"measurement": "glycan array binding signal (z-score)", "setting": "[28]", "result": 0.622},
      {"measurement": "glycan array binding signal (z-score)", "setting": "[29]", "result": -0.466},
      {"measurement": "glycan array binding signal (z-score)", "setting": "[30]", "result": -0.428},
      {"measurement": "glycan array binding signal (z-score)", "setting": "[31]", "result": -0.282},
      {"measurement": "glycan array binding signal (z-score)", "setting": "[32]", "result": -0.433},
      {"measurement": "glycan array binding signal (z-score)", "setting": "[33]", "result": -0.404},
      {"measurement": "glycan array binding signal (z-score)", "setting": "[34]", "result": -0.368},
      {"measurement": "glycan array binding signal (z-score)", "setting": "[35]", "result": -0.322},
      {"measurement": "glycan array binding signal (z-score)", "setting": "[36]", "result": 0.343},
      {"measurement": "glycan array binding signal (z-score)", "setting": "[37]", "result": 0.099},
      {"measurement": "glycan array binding signal (z-score)", "setting": "[38]", "result": -0.368}
    ]}
  ]
}
